Results as given in article PMC12714564.
These are yes or no findings as the source states them, for the method shown. For some of these results: In cells and extracts the contact can be indirect. Some entries that bind do so weakly or less than the wild type.

The chains behind the UniProt entries cited, without tags or fusion partners. Where a name states a change or a piece, a line headed by the entry shows the natural chain unless it says otherwise.
UniProt Q96L91: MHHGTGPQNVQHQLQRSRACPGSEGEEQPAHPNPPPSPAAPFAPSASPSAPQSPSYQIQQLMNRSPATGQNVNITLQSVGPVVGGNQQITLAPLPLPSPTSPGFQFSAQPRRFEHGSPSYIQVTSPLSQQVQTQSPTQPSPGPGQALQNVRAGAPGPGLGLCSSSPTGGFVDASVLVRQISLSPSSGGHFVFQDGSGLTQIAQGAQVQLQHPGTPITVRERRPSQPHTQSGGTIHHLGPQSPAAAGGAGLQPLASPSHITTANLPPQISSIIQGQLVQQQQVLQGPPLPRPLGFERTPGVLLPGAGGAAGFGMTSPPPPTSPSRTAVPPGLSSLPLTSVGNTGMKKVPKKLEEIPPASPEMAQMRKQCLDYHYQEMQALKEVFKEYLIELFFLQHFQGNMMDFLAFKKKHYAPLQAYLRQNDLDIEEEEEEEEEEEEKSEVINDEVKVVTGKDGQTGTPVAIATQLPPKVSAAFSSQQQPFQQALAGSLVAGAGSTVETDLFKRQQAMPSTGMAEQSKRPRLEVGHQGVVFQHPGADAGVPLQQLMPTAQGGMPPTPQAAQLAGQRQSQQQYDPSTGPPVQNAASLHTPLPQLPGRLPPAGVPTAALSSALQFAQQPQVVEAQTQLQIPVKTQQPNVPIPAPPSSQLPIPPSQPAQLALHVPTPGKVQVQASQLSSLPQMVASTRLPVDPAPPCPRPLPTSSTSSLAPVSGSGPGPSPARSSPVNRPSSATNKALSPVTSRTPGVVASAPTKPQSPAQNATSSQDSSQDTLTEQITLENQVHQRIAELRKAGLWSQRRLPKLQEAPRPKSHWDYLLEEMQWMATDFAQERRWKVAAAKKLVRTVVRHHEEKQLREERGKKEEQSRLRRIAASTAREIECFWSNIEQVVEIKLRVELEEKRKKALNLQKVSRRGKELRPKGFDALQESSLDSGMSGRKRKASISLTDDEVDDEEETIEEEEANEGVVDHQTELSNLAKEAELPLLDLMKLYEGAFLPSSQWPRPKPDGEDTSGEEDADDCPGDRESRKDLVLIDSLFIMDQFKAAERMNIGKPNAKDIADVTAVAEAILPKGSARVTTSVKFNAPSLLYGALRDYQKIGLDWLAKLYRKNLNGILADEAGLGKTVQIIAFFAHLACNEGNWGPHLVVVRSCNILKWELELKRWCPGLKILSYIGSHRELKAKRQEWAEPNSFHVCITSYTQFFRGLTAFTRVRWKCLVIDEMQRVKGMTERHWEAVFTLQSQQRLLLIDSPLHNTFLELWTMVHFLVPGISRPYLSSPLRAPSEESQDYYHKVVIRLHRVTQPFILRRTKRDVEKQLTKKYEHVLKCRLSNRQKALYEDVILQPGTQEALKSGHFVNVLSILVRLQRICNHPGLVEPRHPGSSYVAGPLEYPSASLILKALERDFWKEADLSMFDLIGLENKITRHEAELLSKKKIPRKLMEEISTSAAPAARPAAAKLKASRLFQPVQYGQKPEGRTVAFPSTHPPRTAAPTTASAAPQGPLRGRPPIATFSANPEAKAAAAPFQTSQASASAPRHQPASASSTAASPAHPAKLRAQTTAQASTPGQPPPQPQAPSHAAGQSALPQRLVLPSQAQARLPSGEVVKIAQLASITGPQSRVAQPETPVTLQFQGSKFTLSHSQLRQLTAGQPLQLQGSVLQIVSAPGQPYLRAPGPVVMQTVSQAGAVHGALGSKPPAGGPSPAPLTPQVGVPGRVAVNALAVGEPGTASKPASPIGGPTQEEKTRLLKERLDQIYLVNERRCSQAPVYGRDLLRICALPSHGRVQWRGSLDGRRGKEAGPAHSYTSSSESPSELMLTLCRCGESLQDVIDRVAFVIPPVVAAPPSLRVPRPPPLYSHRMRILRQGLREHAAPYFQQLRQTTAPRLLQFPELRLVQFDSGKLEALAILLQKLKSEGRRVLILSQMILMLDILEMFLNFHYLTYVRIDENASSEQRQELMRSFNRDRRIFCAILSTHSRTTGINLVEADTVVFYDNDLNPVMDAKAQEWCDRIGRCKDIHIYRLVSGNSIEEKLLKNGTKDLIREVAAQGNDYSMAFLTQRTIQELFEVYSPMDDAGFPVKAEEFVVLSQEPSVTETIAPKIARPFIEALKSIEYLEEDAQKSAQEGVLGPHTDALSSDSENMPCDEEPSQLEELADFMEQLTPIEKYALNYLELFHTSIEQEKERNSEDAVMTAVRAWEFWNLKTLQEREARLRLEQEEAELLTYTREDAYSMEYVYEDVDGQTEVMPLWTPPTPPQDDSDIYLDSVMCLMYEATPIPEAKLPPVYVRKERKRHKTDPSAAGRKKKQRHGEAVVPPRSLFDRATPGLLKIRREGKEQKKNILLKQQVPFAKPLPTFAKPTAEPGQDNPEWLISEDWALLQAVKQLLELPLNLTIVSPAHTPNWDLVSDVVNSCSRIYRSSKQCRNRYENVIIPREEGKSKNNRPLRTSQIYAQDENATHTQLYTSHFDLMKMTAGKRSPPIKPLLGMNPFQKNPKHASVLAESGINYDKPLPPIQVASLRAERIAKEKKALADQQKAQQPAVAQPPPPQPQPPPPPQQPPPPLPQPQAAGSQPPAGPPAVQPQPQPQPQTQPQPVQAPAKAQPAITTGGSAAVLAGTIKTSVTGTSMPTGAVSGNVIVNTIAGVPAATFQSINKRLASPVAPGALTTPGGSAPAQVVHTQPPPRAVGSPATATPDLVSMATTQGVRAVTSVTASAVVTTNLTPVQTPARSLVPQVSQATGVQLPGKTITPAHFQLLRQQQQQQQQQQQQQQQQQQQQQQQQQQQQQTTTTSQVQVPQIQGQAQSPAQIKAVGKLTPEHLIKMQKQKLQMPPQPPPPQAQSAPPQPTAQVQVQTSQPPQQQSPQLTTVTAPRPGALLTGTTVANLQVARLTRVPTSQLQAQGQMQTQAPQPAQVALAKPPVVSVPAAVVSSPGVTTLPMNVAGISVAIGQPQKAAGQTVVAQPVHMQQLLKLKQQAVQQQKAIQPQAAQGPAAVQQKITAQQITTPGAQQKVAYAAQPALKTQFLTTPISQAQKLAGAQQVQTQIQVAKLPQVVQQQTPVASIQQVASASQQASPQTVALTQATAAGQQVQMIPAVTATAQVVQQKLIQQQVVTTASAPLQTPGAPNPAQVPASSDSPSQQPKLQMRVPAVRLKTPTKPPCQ
UniProt P04608: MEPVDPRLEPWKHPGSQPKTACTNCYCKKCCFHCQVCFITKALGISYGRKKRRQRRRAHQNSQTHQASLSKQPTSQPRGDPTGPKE
UniProt Q9NPF5: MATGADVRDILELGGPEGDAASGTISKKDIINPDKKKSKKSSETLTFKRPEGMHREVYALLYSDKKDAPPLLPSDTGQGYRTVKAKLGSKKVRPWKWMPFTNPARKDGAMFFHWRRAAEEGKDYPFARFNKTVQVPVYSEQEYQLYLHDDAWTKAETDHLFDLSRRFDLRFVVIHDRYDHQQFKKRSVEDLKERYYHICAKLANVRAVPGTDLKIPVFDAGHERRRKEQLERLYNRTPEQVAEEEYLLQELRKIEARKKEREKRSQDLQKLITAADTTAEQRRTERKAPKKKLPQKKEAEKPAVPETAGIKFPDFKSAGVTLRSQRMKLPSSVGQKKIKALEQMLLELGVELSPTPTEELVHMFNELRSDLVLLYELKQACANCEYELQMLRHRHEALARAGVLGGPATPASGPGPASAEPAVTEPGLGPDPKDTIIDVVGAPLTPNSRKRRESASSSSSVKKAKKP
UniProt Q92993: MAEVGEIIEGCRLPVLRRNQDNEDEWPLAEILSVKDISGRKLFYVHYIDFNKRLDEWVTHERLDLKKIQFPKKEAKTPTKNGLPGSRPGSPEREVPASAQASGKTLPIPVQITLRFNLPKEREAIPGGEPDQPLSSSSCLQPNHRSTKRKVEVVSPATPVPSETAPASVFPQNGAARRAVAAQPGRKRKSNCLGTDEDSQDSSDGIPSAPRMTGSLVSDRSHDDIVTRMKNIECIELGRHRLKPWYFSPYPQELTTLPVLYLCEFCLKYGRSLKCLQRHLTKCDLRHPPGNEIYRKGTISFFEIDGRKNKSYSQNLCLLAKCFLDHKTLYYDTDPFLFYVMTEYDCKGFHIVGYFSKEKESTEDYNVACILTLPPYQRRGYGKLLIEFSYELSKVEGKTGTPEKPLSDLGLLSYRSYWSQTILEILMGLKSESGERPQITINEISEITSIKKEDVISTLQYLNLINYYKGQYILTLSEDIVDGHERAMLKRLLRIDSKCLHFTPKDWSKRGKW

Legend:
EP400-Flag (human) = EP400-Flag (human) (UniProt Q96L91); test: co-IP; Flag-tagged EP400 co-expressed with DMAP1 truncations in 293T cells
[1] = target: HIV-1 Tat(86)-Flag, wild type (HIV-1) (UniProt P04608); test: co-IP; Flag-tagged Tat (WT, deletion or point mutants) co-expressed with DMAP1 (full length or truncations) in 293T cells; DMAP1 band normalised to Tat
[2] = target: HIV-1 Tat(86)-Flag, wild type (HIV-1) (UniProt P04608); test: co-IP; Tat immunoprecipitated from HEK293T lysate, co-purified cellular proteins detected by Western blot; IP buffer 50 mM Tris-HCl pH7.5, 1 mM EDTA, 150 mM KCl, 1% Triton-X 100, 4°C; also in cells with stable knock-down of EP400, DMAP1, KAT5 or other p400 subunits
[3] = target: His-tagged Tat, recombinant purified (HIV-1) (UniProt P04608); test: pull-down; 1 µg purified His-Tat mixed with 10 µg GST-DMAP1 in 25 mM Tris-HCl pH 7.2, 150 mM NaCl, 1% Triton-X 100, 0.1% SDS, 4°C 1 h; captured with anti-His tag antibody on Dynabeads Protein G; Western blot; both purified

Substance	binding (EP400-Flag (human))	binding [1]	also measured
DMAP1 1-211 (from UniProt Q9NPF5 1-211) (domain or fragment)	no binding	–	–
DMAP1 1-305 (from UniProt Q9NPF5 1-305) (domain or fragment)	no binding	–	–
DMAP1 1-404 (from UniProt Q9NPF5 1-404) (domain or fragment)	binds	binds	–
DMAP1 67-467 (from UniProt Q9NPF5 67-467) (domain or fragment)	binds	binds	–
DMAP1 121-467 (from UniProt Q9NPF5 121-467) (domain or fragment)	–	no binding	–
DMAP1 212-467 (from UniProt Q9NPF5 212-467) (domain or fragment)	–	no binding	–
DMAP1 full length (WT, 1-467), overexpressed (from UniProt Q9NPF5 1-467)	binds	binds	–
DMAP1, endogenous (from UniProt Q9NPF5 1-467)	–	–	binding [2]: binds
GST-tagged DMAP1, recombinant purified (from UniProt Q9NPF5 1-467)	–	–	binding [3]: binds
KAT5 (from UniProt Q92993 1-513)	–	–	binding [2]: binds
